In PubChem BioAssay (NCATS):
The list shows a part of the results. These are further read-outs of the screen, such as a control signal, another cell line or another target. No call is given for them. Compounds called inactive in the main read-out are mostly missing here. The note in brackets gives the kind of curve behind each potency; many fits are weak.

Assay: qHTS Assay for Lipid Storage Modulators (AID 1519)
Conditions: Drosophila S3 cells, BODIPY lipid droplet/cell ratio, laser cytometry, cells loaded with oleic acid
How it was run: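 Cells seeded at 5,000 per well were treated with compounds over a concentration series and loaded with oleic acid (400 uM, as added). Lipid droplet fluorescence (488 nm excitation, 500-530 nm channel) was read by laser-scanning cytometry and normalized to 20 uM Triacsin C.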

[1] = measured here: cell count channel max response
[2] = measured here: cell number channel AC50
[3] = measured here: lipid (BODIPY) channel AC50
[4] = measured here: lipid channel max response
Tags describe the fitted curve by direction and shape.

Structure (SMILES)	max response [1] [%]	AC50 [2]	AC50 [3]	max response [4] [%]
CN1CCN2c3ccccc3Cc3ccccc3[C@@H]2C1	37	12.6 µM [rising, partial curve, poor fit]	3.98 µM [rising, single point]	35.3
COc1ccc(-n2c(=O)c(-c3cccs3)nc3cnc(Nc4ccccc4)nc32)cc1	128	14.1 µM [rising, partial curve]	39.8 µM [falling, single point]	-55.1
Cc1cnc(CNc2cc(-c3c(C)noc3C)ncn2)cn1	40.9	7.94 µM [rising, partial curve]	10 µM [rising, partial curve, poor fit]	52.4
O=C(/C=C\c1ccc(O)c(O)c1)O[C@@H](Cc1ccc(O)c(O)c1)C(=O)O	-2.96	15.8 µM [rising, single point]	15.8 µM [rising, partial curve, poor fit]	6.02
O=c1cnc2cnc(OCc3ccccc3)nc2n1CCc1ccccc1	17.8	3.55 µM [rising, partial curve, poor fit]	5.62 µM [rising, partial curve, poor fit]	27.5
Cn1c(=O)c(-c2cccc(Cl)c2)nc2cncnc21	8.16	1.41 µM [rising, full curve, poor fit]	1.41 µM [rising, full curve]	19.8
CC(=O)OC1CCC2(C)C(CCC3(C)C2C(=O)C=C2C4CC(C)(C(=O)OCCN5CCCCC5)CCC4(C)CCC23C)C1(C)C (stereo not drawn)	40.5	14.1 µM [rising, partial curve, poor fit]	15.8 µM [rising, partial curve, poor fit]	40.5
CN1CCN(c2ncc3nc(CCc4ccccc4)c(=O)n(Cc4ccc(F)cc4)c3n2)CC1	-0.977	5.01 µM [rising, partial curve, poor fit]	2.24 µM [rising, partial curve, poor fit]	3.73
CN(C)c1ncc2nc(CCc3ccccc3)c(=O)n(C[C@H]3CCCO3)c2n1	10	0.355 µM [rising, partial curve]	0.112 µM [rising, full curve]	17.3
COc1ncc2nc(-c3ccc(Cl)cc3)c(=O)n(C[C@H]3CCCO3)c2n1	19	0.00631 µM [rising, full curve, poor fit]	0.0112 µM [rising, full curve, poor fit]	25.2
CCNc1ncc2nc(-c3ccccc3)c(=O)n(CCOC)c2n1	35.6	2 µM [rising, full curve]	1.12 µM [rising, full curve, poor fit]	23.8
Cc1noc(C)c1-c1nccc(N2CCN(C)CC2)n1	18	1.12 µM [rising, full curve, poor fit]	1.78 µM [rising, partial curve, poor fit]	22.5
CN(C)c1ncc2nc(-c3ccc(Cl)cc3)c(=O)n(Cc3ccc(F)cc3)c2n1	38.1	3.16 µM [rising, full curve]	2.82 µM [rising, full curve]	45.7
CC(=O)NCCc1ccc(O)c(O)c1	7.31	0.0141 µM [falling, full curve, poor fit]	0.0141 µM [falling, full curve, poor fit]	5.4
CCNc1ncc2nc(-c3cc(F)cc(F)c3)c(=O)n(Cc3ccc(F)cc3)c2n1	31.7	0.112 µM [rising, full curve, poor fit]	0.447 µM [rising, full curve, poor fit]	43
COCc1nc2c([nH]1)c(=O)n(C)c(=O)n2CC(C)C	70	17.8 µM [rising, partial curve, poor fit]	17.8 µM [rising, partial curve, poor fit]	94.1
COc1ccccc1-c1cc(N(C)Cc2ccco2)ncn1	29.2	5.62 µM [rising, full curve, poor fit]	3.55 µM [rising, full curve, poor fit]	30.5
